In all, about 150,000 compounds went through this assay and about 540 (0.36%) showed an effect of 50% or more. This is one part of the list.
These molecules were tested on Plasmodium falciparum (assay: Primary screen in NF54 nanoGlo assay, in single point, at 2uM, 72h; a lower Z score goes with more inhibition). Settings: timepoint 72 hour.
Format: functional, Erythrocyte
With `Cc1ccc(F)cc1S(=O)(=O)N1CC[C@H](CN(C)C)[C@@H](O)C1` the “% Inhibition” value was -1% and the Z score was 0.1. For `O=C1C2CN(Cc3ccccc3)CC2C(=O)N1CCC1CCCO1` (stereo not given), the “% Inhibition” value was 9% and the Z score was -1.79. For `O=C1C2ON(c3ccccc3)C(c3ccncc3)C2C(=O)N1c1ccc2ccccc2c1` (stereo not given), the “% Inhibition” value was 38% and the Z score was -4.34. `CCC[C@H]1COCCN1Cc1cccc(C(=O)Nc2ccc(C)nn2)c1` was tested, and the “% Inhibition” value was -1% and the Z score was 0.22. In the case of `CC(C)C[C@H]1COCCN1c1ncc(C#N)cc1Cl`, the “% Inhibition” value is reported as -8% and the Z score is reported as 1.23. For `COc1ccc([C@H]2C3CCCCC3(O)CCN2Cc2ccc(C)cc2)c(OC)c1` (stereo not given in full), the “% Inhibition” value was -4% and the Z score was 0.76. In the case of `NC(=O)c1cc(F)cc(Br)c1`, the “% Inhibition” value is reported as -3% and the Z score is reported as 0.67. `CCc1nn(CC)c(=O)c2cc(S(=O)(=O)Nc3cc(OC)cc(OC)c3)cn12` was tested, and the “% Inhibition” value was -6% and the Z score was 0.81. `N#Cc1ccccc1S(=O)(=O)N1CCC(N2CCC(Oc3nccs3)CC2)CC1` was tested, and the “% Inhibition” value was -12% and the Z score was 1.48. In the case of `Cc1nnc([C@@H]2CC3(CCN(CCc4ccccc4)CC3)CN2Cc2cccnc2)o1`, the “% Inhibition” value is reported as 8% and the Z score is reported as -1. `CN(CC1CCCCC1)C(=O)c1cc(-c2ccco2)[nH]n1` was tested, and the “% Inhibition” value was -12% and the Z score was 2.45. In the case of `C=C=CCNS(=O)(=O)CCO[C@H]1CCOC1`, the “% Inhibition” value is reported as 13% and the Z score is reported as -1.66. In the case of `O=C(CN1CCCCC1=O)N[C@@H]1C[C@H]1c1c(F)cccc1Cl`, the “% Inhibition” value is reported as -2% and the Z score is reported as 0.23. `CCOC(=O)c1nc(COC(C)=O)cs1` was tested, and the “% Inhibition” value was -5% and the Z score was 0.61. With `CCOc1cc(NCc2nc(C)[nH]c2C)ncn1` the “% Inhibition” value was -16% and the Z score was 3.01. In the case of `Cc1nnc(-c2cnn(C)c2N)n1CCc1ccccc1`, the “% Inhibition” value is reported as 5% and the Z score is reported as -0.68. In the case of `Cc1nc(N2CCCC2)nc(C)c1NC(=O)COc1ncccn1`, the “% Inhibition” value is reported as -5% and the Z score is reported as 0.81. In the case of `COc1cc2c(cc1NC(=O)NCCc1csc(N)n1)n(C)c(=O)n2C`, the “% Inhibition” value is reported as -14% and the Z score is reported as 2.59. For `c1ccc(N(c2ccccc2)c2nc(N3CCCCC3)nc(N3CCCCC3)n2)cc1`, the “% Inhibition” value was -10% and the Z score was 1.27. `O=C(CN1CCCOC1=O)N1CCCCCCC1` was tested, and the “% Inhibition” value was -11% and the Z score was 1.53. With `Cc1nsc(N2CCC(O[C@H]3CCOC3)CC2)c1C#N` the “% Inhibition” value was -2% and the Z score was 0.17. `Cn1cc(NC(=O)N[C@H]2CCN(C(=O)OCc3ccccc3)C2)nn1` was tested, and the “% Inhibition” value was 1% and the Z score was -0.14. In the case of `CC1(NCc2ccc(Oc3ccccc3)o2)CCOCC1`, the “% Inhibition” value is reported as -1% and the Z score is reported as 0.15. In the case of `O=S(=O)(c1cccnc1)N1CC(N2CC(F)(F)C[C@H]2CO)C1`, the “% Inhibition” value is reported as -2% and the Z score is reported as 0.19. In the case of `C=CCC[C@H](O)CN1CCN(c2nc(-c3ccccc3)nc(CC)c2Cc2ccc(F)cc2)CC1`, the “% Inhibition” value is reported as -12% and the Z score is reported as 1.92. With `CCn1nncc1CNC1CCCCC1` the “% Inhibition” value was -9% and the Z score was 0.89. `CCc1cnc(NC(=O)[C@H]2CCCO2)o1` was tested, and the “% Inhibition” value was -2% and the Z score was 0.44. In the case of `Cc1nc(-c2nc(C3CCOCC3)nn2-c2cccc(C(=O)O)c2)cs1`, the “% Inhibition” value is reported as -11% and the Z score is reported as 2.08. With `CC1CCCCC1NC(=O)C1c2cccn2CC(=O)N1Cc1ccccc1` (stereo not given) the “% Inhibition” value was -4% and the Z score was 0.58. For `C[C@H]1CN(C(=O)C2=NN(Cc3ccc(F)cc3)C(=O)CC2)CCO1`, the “% Inhibition” value was -8% and the Z score was 0.87. `Cc1n[nH]c(=O)c(C(=O)N2CC3CCCCC3C2)c1C` (stereo not given) was tested, and the “% Inhibition” value was 4% and the Z score was -0.48. `COC(=O)[C@@H]1CCCN1C1CCN(Cc2nocc2C)CC1` was tested, and the “% Inhibition” value was 0% and the Z score was -0.02. For `Cc1cccc(Oc2nc(N(C)Cc3ccccc3)nc3c2CN(S(=O)(=O)c2ccccc2)CC3)c1`, the “% Inhibition” value was 1% and the Z score was -0.11. With `CC(C)c1cccc(N(C)CCCS(C)(=O)=O)c1` the “% Inhibition” value was -12% and the Z score was 1.37. For `CC(C)Oc1cc(CNS(=O)(=O)c2cnc(N)nc2)ccn1`, the “% Inhibition” value was 3% and the Z score was -0.56. For `CNC(=O)NC[C@H]1COCCN1C(=O)c1[nH]nc(C(F)(F)F)c1C`, the “% Inhibition” value was -11% and the Z score was 1.2. `Cn1nccc1CN1CC[C@H]1c1cccs1` was tested, and the “% Inhibition” value was 4% and the Z score was -0.52. With `Cc1ccc(-c2ncc(C(=O)N3CCC[C@H]3c3cc(C)on3)c(O)n2)cc1` the “% Inhibition” value was -9% and the Z score was 1.35. With `O=C(c1coc(COc2cccc(F)c2)n1)N1C[C@H](O)[C@@H](N2CCCC2)C1` the “% Inhibition” value was 5% and the Z score was -0.67. `COCc1noc(CN2C[C@@H]3CC[C@H]2CN(Cc2ccc(F)cc2)C3)n1` was tested, and the “% Inhibition” value was -16% and the Z score was 1.47. For `Cc1cnccc1N1CC(C)OC(C2CC2)C1` (stereo not given), the “% Inhibition” value was -10% and the Z score was 0.84. In the case of `Cn1cnc(C(=O)N(CCCN2CCCC2=O)C2CCOCC2)c1`, the “% Inhibition” value is reported as -6% and the Z score is reported as 0.69. In the case of `CCS(=O)(=O)NCCNc1ncc(Br)cc1C`, the “% Inhibition” value is reported as -12% and the Z score is reported as 2.21. For `COc1cccc(Cn2c(=O)c(C(=O)NCc3ccco3)nn(-c3ccc(C)cc3)c2=O)c1`, the “% Inhibition” value was -21% and the Z score was 1.85. With `O=C(O)CC1CN(C(=O)C2CCCc3ccccc32)CCO1` (stereo not given) the “% Inhibition” value was -9% and the Z score was 1.58. With `C[C@H](NC(=O)NC1CCOCC1)c1ccc(S(C)(=O)=O)c(F)c1` the “% Inhibition” value was -6% and the Z score was 1.21. `CN(C)c1cc(NC(=O)NC[C@H]2CCCCN2C2CC2)ccn1` was tested, and the “% Inhibition” value was -3% and the Z score was 0.62. In the case of `COc1ccccc1CNc1ccc(C(=O)Oc2ccccc2Cl)cc1S(=O)(=O)Nc1cccc(C(F)(F)F)c1`, the “% Inhibition” value is reported as 2% and the Z score is reported as -0.41. `O=C(c1nn[nH]c1Nc1ccccc1F)N1CCCCCC1` was tested, and the “% Inhibition” value was -3% and the Z score was 0.34. With `O[C@H]1CN(c2ncnc3ccsc23)CC[C@@H]1N1CCOCC1` the “% Inhibition” value was -11% and the Z score was 2.09. With `CC1CCCN(S(=O)(=O)N2CCCC(c3nncn3C)C2)C1` (stereo not given) the “% Inhibition” value was -8% and the Z score was 1.47. `Cc1noc(C(F)(F)F)c1C(=O)NC1CCC(C)CC1` (stereo not given) was tested, and the “% Inhibition” value was 4% and the Z score was -0.59. For `CCCCN1C(=O)[C@](NC(=O)CC(C)C)(C(F)(F)F)C(C(C)=O)=C1C`, the “% Inhibition” value was -4% and the Z score was 0.48. With `O=C(NC[C@H](C(=O)O)C1CCCCC1)C1CC=CC1` the “% Inhibition” value was -1% and the Z score was 0.19. In the case of `CC(C)c1nc2ccccc2n1CCNC(=O)C[C@@H]1N=C(O)c2ccccc2NC1=O`, the “% Inhibition” value is reported as -12% and the Z score is reported as 2.22.
